In the supplement of paper PMC10126150:
Sequences with one replicate were seen in a single cluster, so their values are uncertain.

Tested on: ATP
Test: switch fluorescence ratio, 500 uM ATP over buffer (Cy3 cluster intensity, sum of 5 cycles each) (fold (ratio)); higher = stronger signal-on switching upon ATP binding; sequences stand for … in TCGTCGGCAGCGTCAGATGTGTATAAGAGACAGTTTTTTTTTTTTTTTTTTTTTTTTT…TC
Settings: aptamer strand: ATP DNA aptamer (quencher-CACCTGGGGGAGTATTGCGGAGGAAGG + anchor), 100 nM annealed; ATP concentration: 500 uM; one replicate
Outline: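 After annealing to 100 nM quencher-labelled ATP aptamer, Cy3-labelled switching-strand clusters on a modified Illumina MiSeq flow-cell were imaged in selection buffer. A second image followed after 15 min with 500 uM ATP at 22 °C, and five such buffer/ATP cycles were done, each separated by NaOH stripping and re-annealing. The fluorescence ratio, averaged per switch-domain sequence, is summed target-cycle over summed buffer-cycle Cy3 intensity per cluster, with clusters outside 100-1000 RFU excluded.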
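Note: ATP exposure 15 min at 22 °C before imaging.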

Sequence | switch fluorescence ratio
GCAGCGAGAT | 2.14
ATTCACTTTA | 1.04
AGGTTACGCC | 1.03
GCCTTATGT | 0.986
CTGGACGTAC | 1.75
CTGGATAAAT | 0.998
GCGCGTAGTG | 1.01
GCCCCTCGTC | 0.993
TAATGTATGG | 0.998
ACCACGTGGA | 1.01
GTATCGGGGG | 1.01
GCCTGATGGG | 1.11
AGATCGGCCA | 0.991
TTACTATA | 1.14
TAAGATTAAG | 0.982
GTCACCTGCG | 1.05
CGTGTTCCAT | 0.998
GCGCCAGAGT | 1.02
GTCCACCTTT | 1.03
TTTCCTTT | 0.979
TGGAGACTGT | 1.04
TTCAGTAGA | 0.969
CATACAGAGT | 1
TTGAGAGTCA | 0.964
ACGCAAGGGG | 1.48
GAAGAATGGG | 0.983

Sequence | switch fluorescence ratio
TTCCTGTAAA | 1.03
TTATGATTCG | 0.98
ACAAGTCAA | 1.01
CAACAGAATA | 0.997
CCAAAGATGG | 1.01
AAATGTTGAA | 0.957
CCGGTTTTT | 0.985
GCGGATCCTT | 1.02
TCTGTGATTA | 0.97
CCCACCCCTT | 1.05
GCCTATTCTG | 0.918
ACTTGTTGCC | 1.04
TGCTCTGGAT | 1.05
GGTTGGGCTA | 0.978
ATTAGGAAAC | 1.02
TCTTTGATAA | 0.997
AAGAGAGAAG | 0.969
TTAGTTATGG | 1.08
CTAGTCACTG | 0.967
CCGTGGGGCA | 1.01
TGGATCCAAT | 1.02
TGTAATGAAT | 1.01
GGAGTTGTCA | 0.957
CAAGGCACGG | 0.928
AACTGGTCAG | 0.938
TAAAGCCGTT | 1.07

Sequence | switch fluorescence ratio
CGCGAGGAGC | 1.07
GATATATACA | 1.04
ACAGTGATTG | 1.04
TCATAAAGGC | 1.02
AAATTCACT | 1.04
ACTTTCATTG | 1.13
CTAGCTGTTC | 1.05
ATGGAGACAG | 0.966
ACTCGAGCG | 1.02
TGCCCATGG | 1.03
CTTCCAACCG | 1.78
GCGATATGG | 1.03
GTGGAAGTAG | 1
GCCGTATAAC | 1.11
CGGCGCATTT | 1.71
CGCGCAAGTG | 1.06
ACAATCGACG | 1.05
TGTAACTAGC | 1.08
TCAATTAA | 1.07
ACGAGAACAG | 1.17
CAAAAAGTTA | 1.04
GTGTTGTGGC | 0.963
CTAATTGGAG | 0.991
TACCCCATGC | 1.18
ACGTCATCCG | 1.21
GTGATTAACA | 1

Sequence | switch fluorescence ratio
TGTTTCGGCA | 1
TTGAGTCGTA | 0.958
ATCCTAGTAG | 0.96
CTAGACAGG | 0.986
GCGGTCGAAT | 0.97
ATGGGATCTA | 0.977
ACTATGCTGC | 1.16
GCCCTTATAA | 0.959
GACAACTTGG | 0.967
GCTTGTTGCA | 0.97
CACGGTTGCG | 1.01
CGAGTGTCAA | 1.07
GATCCGAGG | 1.01
CTCCGAGGTC | 2.93
ATACGCAGCA | 1.37
TTAGTGTGGT | 0.984
TTCAACTTGG | 0.955
GGGAGTCGAG | 1.03
ATATCGGTCT | 0.957
GAAGGCA | 0.983
GTTAATGGTT | 1.05
CTCTCCCCCG | 2.24
GACCATGGCC | 0.996
GCTGCGCGGC | 1.03
AGATCTAGTA | 0.985
GGGAAGGAGC | 1

Sequence | switch fluorescence ratio
CTTGAAGGTT | 1.01
TAACTGTGGT | 0.969
AAGAAGGTTA | 1.01
TTTAGCGCTA | 0.992
TACGCTGTCA | 0.991
TTTCCCGCGC | 1.36
CAAGGCTGCT | 1.01
TAGCGGCGCT | 0.997
ACGCATCCGC | 1.61
CTCGAAAGGT | 0.996
TCATCCAATG | 1.02
CCTACCTACG | 1.6
ACTTGGGCG | 1.01
AACGCGATAT | 6.96
CAAGTTTGCG | 0.966
CTTTGCTATT | 1.12
GTTTCGGCAA | 1.2
CATGTATTC | 0.933
GGCCCACAAT | 1.03
CCATTCGTTC | 1.09
TATGCGCCAA | 1.07
ACCAGTCTCC | 1.15
AACATTGGTA | 1.03
TCATTCTAC | 1.05
CGAGCTGGAC | 1.91
CAATGCGCTG | 1

Sequence | switch fluorescence ratio
TCTACAAACG | 1.39
GGGCAGCACG | 0.997
CCTAGAACAC | 1.14
CTCTAGGAGA | 0.968
ATTGGGCCGT | 0.941
TGCAAGGAGG | 0.978
ACCTCAAGAG | 1.21
AGTCGTGCAG | 0.967
TACAGATGGT | 1.02
CTACTTCGG | 0.963
GTTGCTCATA | 0.955
AGCCAAACGA | 0.989
GAAATTAGCA | 1
AATCGGGTCC | 1.04
GGAACTAGAG | 0.995
AAATTCGATA | 1.02
GGGAGGCCGC | 0.988
TTATGAAAA | 0.983
AGATTCTTGT | 0.961
TTATCGGTGC | 1.02
ACAGACAGTC | 0.804
CGATTCCCGT | 1.04
TTACGGTTTG | 1
TGGGTTAGTC | 0.968
GCAGTATGTT | 0.982
TCGTATATCG | 1.02

Sequence | switch fluorescence ratio
TCGTCGATAA | 1.16
CCATGAGGTC | 0.916
GCGGATTAAG | 0.983
GGTATACTCG | 1.07
TGCCGTTGAA | 1.04
TATCTAACGA | 1.06
TAGGGTATTA | 1
TGATTGTTCG | 1.01
CCAATTTTTC | 0.944
AGTATAATGG | 0.95
GCCCGTACTT | 1
GGTACATCAA | 1.02
GACGGATTGC | 1.16
CATTCTTTGT | 0.95
TCCTTCTTTC | 1.1
CCCAAGTCAT | 1.03
TAGTTGAATG | 0.978
GGCTCGTTAC | 1.19
GTGCCTACTT | 1.01
GCCCCGGTTT | 0.994
TACGCGGGAG | 1.26
TCTCGCGGGT | 1.01
TTTTACCAAG | 1.07
ACATGCTTTC | 1.06
TGAAAGAATA | 1.03
CCTCCGCTAG | 1.12

Sequence | switch fluorescence ratio
TATGAACATA | 1.04
GTTGCTCGGA | 1.04
TTTAAAAGTT | 0.966
CAGGAAGATA | 1.05
GAGGCACAA | 1.11
TTGATTACGG | 1
GTTTCTTGGT | 0.942
GCTCCTATTT | 0.981
GTTAAGGGAG | 1.01
GGGCTATGCG | 1.08
GGATAAGTGG | 1.03
TAAAATCTAT | 0.985
GGTTAGTGAC | 1.02
GTTAGTCAAG | 0.985
AGGACGT | 0.985
TGCTTTCGTA | 0.991
CCAGGCCGT | 0.961
AAACCCTGT | 1.01
ATGTTGTGTG | 0.994
